# Inconclusive means that the source gave no clear call. Such entries were picked first, then a sample of the others. For some assays here: A potency beside an inconclusive call is a rough fit, not a confirmed value. The source made the active and inactive calls. Unless noted, the call rests on the fitted dose curve; in most records, active means well fitted curve in the direction sought with a large enough effect in the repeat runs; inconclusive means weak or mixed curves; inactive means no such curve, though single readings can be large; an effect the other way counts as inactive or inconclusive.
# Key:
# [1] = molecular target: Acetylcholinesterase (Homo sapiens) (UniProt P22303); assay: Acetylcholinesterase (AChE) small molecule antagonists: fluorescence cell-based qHTS assay (AID 1347398; calls by dose curve; further: potency means the concentration at half of the fitted maximal effect; nearly all actives have a fitted effect of over 50% in size); settings: Potency: AChE activity
# Outline: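 Human SH-SY5Y cells were plated overnight at 37 C, exposed to compound for 30 min at 37 C, 5% CO2, then given acetylthiocholine plus Thiolite Green for 40 min at room temperature; thiocholine fluorescence (Ex/Em 490/520 nm) reports endogenous AChE activity.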
# [2] = qHTS assay to identify small molecule antagonists of the thyroid receptor (TR) signaling pathway (AID 743065); further: nearly all actives have a fitted effect of over 55% in size; further: potency means the concentration at half of the fitted maximal effect; on activity, negative = inhibition: on the % scale 0 is the no-effect control and ±100 the full control effect
# Outline: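 GH3.TRE-Luc rat pituitary cells carrying two TR response elements driving luciferase were plated for 4 h, given compound plus 1 nM T3 (final), and incubated 23.5 h at 37 C. ONE-Glo luminescence measured reporter inhibition; CellTiter-Fluor fluorescence tracked cytotoxicity.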
# [3] = qHTS assay to identify small molecule antagonists of the estrogen related receptor (ERR) signaling pathway from Tox21 library (AID 1224848); further: nearly all actives have a fitted effect of over 50% in size; further: potency means the concentration at half of the fitted maximal effect; on activity, negative = inhibition: on the % scale 0 is the no-effect control and ±100 the full control effect
# Outline: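 Cells: ERR line, 2,000/well; 6 h preincubation 37 C/5% CO2. Cpd in DMSO via pin tool; 18 h, 37 C. ONE-Glo, 30 min RT, luminescence.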
# [4] = qHTS assay to identify small molecule antagonists of the constitutive androstane receptor (CAR) signaling pathway - cell viability counter screen (AID 1224837); further: nearly all actives have a fitted effect of over 45% in size; further: potency means the concentration at half of the fitted maximal effect
# Outline: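 HepG2-CYP2B6-hCAR cells, 2500/well, 4 hr pre-incubation; compound titration, 15 conc.; CITCO 50 nM final; 23 hr, 37 C/5% CO2; CellTiter-Fluor, fluorescence intensity.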
# [5] = qHTS RealTime-Glo MT Cell Viability Assay in HEK293 cells - 40 hour (AID 1224874); settings: RealTime-Glo luminescence; max response: stronger effect = lower value; further: nearly all actives have a fitted effect of over 50% in size; further: potency means the concentration at half of the fitted maximal effect; on max response: on the % scale 0 is the no-effect control and ±100 the full control effect
# Outline: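 Cells were seeded together with NanoLuc luciferase and a prosubstrate that viable cells reduce to a luciferase substrate. After a 5 h incubation at 37 C/5% CO2, compounds were added and luminescence was measured repeatedly during 40 h of treatment.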
# [6] = qHTS assay to identify small molecule agonists of the TGF-beta/Smad signaling pathway (AID 1346859; active means well fitted activation curve with a large enough effect in the signal ratio in the repeat runs, not every such curve was filed as active; inconclusive means weak or mixed curves; the % refers to the signal ratio; further: on the % scale 0 is the no-effect control and ±100 the full control effect)
# Outline: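 Screening used HEK 293T SBE-bla cells at 4,000/well. Test agents: 5 hr, 37 C. Detection: FRET substrate, 2 hr RT, then excitation 405 nm with emissions at 460 and 530 nm.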
# [7] = qHTS assay to identify small molecule antagonists of the retinoic acid receptor (RAR) signaling pathway (AID 1159552; further: potency means the concentration at half of the fitted maximal effect; nearly all actives have a fitted effect of over 50% in size)
# Outline: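 Test chemicals and DMSO controls were pin-transferred onto C3RL4 cells a day after seeding; retinol (1 uM final) followed at once. Luminescent reporter output was quantified after 6 hr of co-incubation and 30 min with detection reagent.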
# [8] = qHTS assay to identify small molecule agonists of the estrogen receptor alpha (ER-alpha) signaling pathway in the presence of an antagonist - cell viability counter screen (AID 1259386);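 further: cells exposed to compounds for 22 h at 37 °C before the viability read; nearly all actives have a fitted effect of over 30% in size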; further: potency means the concentration at half of the fitted maximal effect
# Outline: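 VM7Luc4E2, stripped-serum pre-culture 5 d; 24hr plating; +ICI-182,780 10.0nM final; cpds 15 conc, 22hr, 37C/5% CO2; CellTiter-Fluor added at 21hr, fluorescence 1hr later.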
# [9] = molecular target: Estrogen receptor (Homo sapiens) (UniProt P03372); assay: qHTS assay to identify small molecule antagonists of the estrogen receptor alpha (ER-alpha) signaling pathway (AID 743069; active means well fitted curve in the direction sought with a large enough effect in the signal ratio in the repeat runs, not every such curve was filed as active; inconclusive means weak or mixed curves, or effect the other way; inactive means no such curve, though single readings can be large or run the other way; the % refers to the signal ratio; further: potency means the concentration at half of the fitted maximal effect); settings: HEK293 ER-alpha-UAS-bla, beta-lactamase ratio, antagonist mode; activity, negative = inhibition: at 69.4 µM (top of the series) unless noted
# Outline: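 HEK293 cells stably carrying an ER-alpha-UAS-bla beta-lactamase reporter were pre-cultured overnight in 2% charcoal-stripped FBS medium. Test compounds in DMSO were added together with 17beta-estradiol for 18 hr at 37C. Read-out was fluorescence after 2 hr with LiveBLAzer B/G FRET substrate at room temperature.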
# [10] = molecular target: Nuclear receptor subfamily 1 group I member 3 (Homo sapiens) (UniProt Q14994); assay: qHTS assay to identify small molecule antagonists of the constitutive androstane receptor (CAR) signaling pathway (AID 1224838);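 further: HepG2 cells stably expressing hCAR with CYP2B6 luciferase reporter stimulated by CITCO; potency means the concentration at half of the fitted maximal effect; nearly all actives have a fitted effect of over 40% in size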
# Outline: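 HepG2-CYP2B6-hCAR cells; 4 h pre-incubation; cpd (15 conc) + CITCO 50 nM final; 24 h, 37 C/5% CO2; ONE-Glo, luminescence.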
# [11] = A CellTox Green Cytotoxicity Assay to monitor cytotoxicity in HepG2 cells - 32 hour (AID 1224883)
# Outline: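 Read-out is fluorescence of a cyanine dye excluded from live cells that stains DNA of dead HepG2 cells, with signal proportional to cytotoxicity. Plates were read at 0, 8, 16, 24, 32 and 40 h after compound addition.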
# [12] = qHTS assay to identify small molecule antagonists of the androgen receptor (AR) signaling pathway - cell viability counter screen (AID 743033; further: nearly all actives have a fitted effect of over 45% in size; further: potency means the concentration at half of the fitted maximal effect)
# [13] = qHTS assay to identify small molecule antagonists of the estrogen related receptor signaling pathway with the pleiotropic PPARgamma coactivator (PGC) from Tox21 10K library - cell viability counter screen (AID 1224840; active means well fitted cell-killing curve with a large enough effect in the repeat runs, not every such curve was filed as active; inconclusive means weak or mixed curves, or effect the other way; inactive means no such curve, though single readings can be large or run the other way; further: nearly all actives have a fitted effect of over 40% in size; further: potency means the concentration at half of the fitted maximal effect)
# Outline: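 PGC/ERR cells, 2,000/well; 6 h pre-incubation 37 C/5% CO2; cpd in DMSO via pin tool; 17.5 h 37 C; CellTiter-Fluor, 30 min; fluorescence.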
# [14] = qHTS assay to identify small molecule agonists of the constitutive androstane receptor (CAR) signaling pathway - cell viability counter screen (AID 1224836); further: potency means the concentration at half of the fitted maximal effect; nearly all actives have a fitted effect of over 45% in size
# Outline: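 23 h treatment, 37 C, 5% CO2. Cell line: HepG2 stably expressing hCAR with a CYP2B6-2.2kb construct. Co-treatment: PK11195, 0.75 uM final. Read-out: CellTiter-Fluor fluorescence intensity.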
# [15] = molecular target: Cytochrome P450 3A4 (Homo sapiens) (UniProt P08684); assay: Cytochrome P450 Family 3 Subfamily A Member 4 (CYP3A4) small molecule antagonists: luciferase reporter qHTS assay (AID 1671201)
# Outline: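 CYP3A4 activity was followed with a P450-Glo proluciferin substrate. Test compounds in DMSO were preincubated 10 min; NADPH regeneration then ran 1 h, and light output was read 20 min after detection reagent.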
# Tags describe the fitted curve by direction and shape or compound fluorescence and quenching.
# Sequence of UniProt P03372 (P03372 whole entry, looked up): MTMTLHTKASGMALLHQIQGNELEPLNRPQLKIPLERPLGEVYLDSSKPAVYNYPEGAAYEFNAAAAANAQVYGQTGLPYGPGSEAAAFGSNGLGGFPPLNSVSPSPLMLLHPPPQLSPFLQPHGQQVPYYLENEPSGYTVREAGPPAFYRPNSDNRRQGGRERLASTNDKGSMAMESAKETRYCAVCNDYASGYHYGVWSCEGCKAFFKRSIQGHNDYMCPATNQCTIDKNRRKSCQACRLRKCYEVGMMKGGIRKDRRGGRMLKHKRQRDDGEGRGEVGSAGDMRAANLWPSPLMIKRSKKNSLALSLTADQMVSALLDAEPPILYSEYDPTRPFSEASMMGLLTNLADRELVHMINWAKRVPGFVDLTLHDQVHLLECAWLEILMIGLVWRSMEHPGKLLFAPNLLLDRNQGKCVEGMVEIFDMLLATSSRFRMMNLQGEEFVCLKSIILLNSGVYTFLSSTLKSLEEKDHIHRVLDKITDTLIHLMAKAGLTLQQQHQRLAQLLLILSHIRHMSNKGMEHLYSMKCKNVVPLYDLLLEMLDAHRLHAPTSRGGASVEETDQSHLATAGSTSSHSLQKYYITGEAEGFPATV
# Sequence of UniProt P22303 (P22303 whole entry, looked up): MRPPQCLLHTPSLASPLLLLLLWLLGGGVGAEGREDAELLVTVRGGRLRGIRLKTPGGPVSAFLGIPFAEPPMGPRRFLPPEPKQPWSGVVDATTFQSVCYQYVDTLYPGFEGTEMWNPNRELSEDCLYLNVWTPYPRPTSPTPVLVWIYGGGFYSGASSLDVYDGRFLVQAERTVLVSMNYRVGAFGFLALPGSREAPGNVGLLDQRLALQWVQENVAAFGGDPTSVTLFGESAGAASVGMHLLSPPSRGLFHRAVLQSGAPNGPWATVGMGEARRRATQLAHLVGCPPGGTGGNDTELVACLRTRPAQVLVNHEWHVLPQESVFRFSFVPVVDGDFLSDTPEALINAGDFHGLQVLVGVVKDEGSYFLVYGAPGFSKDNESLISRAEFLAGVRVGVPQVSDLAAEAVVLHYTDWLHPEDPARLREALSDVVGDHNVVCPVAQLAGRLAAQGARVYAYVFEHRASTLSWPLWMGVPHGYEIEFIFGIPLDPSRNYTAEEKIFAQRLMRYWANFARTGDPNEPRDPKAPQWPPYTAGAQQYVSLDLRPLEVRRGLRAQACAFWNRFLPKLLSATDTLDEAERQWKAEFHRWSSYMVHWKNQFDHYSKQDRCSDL
# Sequence of UniProt Q14994 (Q14994 whole entry, looked up): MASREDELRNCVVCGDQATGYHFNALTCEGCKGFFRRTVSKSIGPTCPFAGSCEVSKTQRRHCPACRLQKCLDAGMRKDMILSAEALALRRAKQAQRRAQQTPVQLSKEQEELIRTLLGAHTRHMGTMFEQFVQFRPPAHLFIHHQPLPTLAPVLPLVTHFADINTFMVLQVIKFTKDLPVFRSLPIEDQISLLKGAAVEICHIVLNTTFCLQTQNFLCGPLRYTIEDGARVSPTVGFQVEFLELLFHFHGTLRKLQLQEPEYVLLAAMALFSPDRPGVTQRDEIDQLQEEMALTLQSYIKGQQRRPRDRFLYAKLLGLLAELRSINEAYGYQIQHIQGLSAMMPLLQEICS
# Sequence of UniProt P08684 (P08684 whole entry, looked up): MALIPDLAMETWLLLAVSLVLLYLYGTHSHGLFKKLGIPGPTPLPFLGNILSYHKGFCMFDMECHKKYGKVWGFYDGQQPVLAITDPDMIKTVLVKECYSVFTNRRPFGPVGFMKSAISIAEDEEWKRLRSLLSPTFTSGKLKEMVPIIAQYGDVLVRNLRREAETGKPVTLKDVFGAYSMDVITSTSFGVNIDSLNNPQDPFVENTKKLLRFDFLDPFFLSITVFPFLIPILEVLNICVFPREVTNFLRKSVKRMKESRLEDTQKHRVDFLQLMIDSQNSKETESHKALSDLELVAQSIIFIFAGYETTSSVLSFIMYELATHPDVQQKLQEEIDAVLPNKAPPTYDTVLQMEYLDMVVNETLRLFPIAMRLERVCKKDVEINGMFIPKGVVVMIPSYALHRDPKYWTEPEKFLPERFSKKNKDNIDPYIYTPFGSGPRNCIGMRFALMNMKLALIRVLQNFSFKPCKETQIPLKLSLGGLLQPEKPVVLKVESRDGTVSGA
smiles,measurement,setting,value
CCOP(=S)(OCC)SCS(=O)(=O)C(C)(C)C,Potency,[1],"inconclusive: 35.6 µM [inhibitor, partial curve]"
O=c1oc2ccccc2c(O)c1C1CCCc2ccccc21 (centres undefined),Potency,[2],"inconclusive: 61.1 µM [inhibitor, partial curve]"
same,Potency,[3],"inconclusive: 68.6 µM [inhibitor, single point]"
CC(C)c1ccc(NC(=O)N(C)C)cc1,Potency,[4],inactive
same,max response,[5],inactive: 3.89%
same,Potency,[6],inactive
O=C(O)CBr,Potency,[4],inactive
Oc1ccc2c3c1O[C@H]1[C@@H](O)C=C[C@H]4[C@@H](C2)NCC[C@@]341,Potency,[7],"inconclusive: 63 µM [inhibitor, partial curve, poor fit]"
same,Potency,[3],inconclusive: 79.3 µM [inhibitor]
same,Potency,[8],"inconclusive: 63 µM [cytotoxic, partial curve, poor fit]"
CCC[CH2][Sn]([Cl])([Cl])[Cl],Potency,[2],inactive
same,Potency,[4],inactive
same,Potency,[3],inactive
CC[C@]1(O)CC[C@H]2[C@@H]3CCC4=CCCC[C@@H]4[C@H]3CC[C@@]21C,Potency,[2],active: 8.41 µM
same,"activity, negative = inhibition",[9],inconclusive: 21.1%
same,Potency,[10],active: 33.5 µM
same,Potency,[3],"inconclusive: 29.8 µM [inhibitor, partial curve]"
same,Potency,[5],"inconclusive: 23.9 µM [cytotoxic, partial curve, poor fit]"
same,Potency,[11],"inconclusive: 23.9 µM [activator, single point]"
CC(=O)NNc1ccccc1,Potency,[12],"inconclusive: 10.9 µM [rising, partial curve, poor fit]"
same,Potency,[13],"inconclusive: 15.2 µM [cytotoxic, full curve]"
CSSC,Potency,[14],"inconclusive: 24.6 µM [cytotoxic, partial curve]"
same,Potency,[4],"inconclusive: 27.6 µM [cytotoxic, partial curve]"
same,Potency,[5],"inconclusive: 3.94 µM [cytotoxic, full curve]"
same,Potency,[15],inactive
CCOP(=O)(Sc1ccccc1)Sc1ccccc1,Potency,[9],inconclusive: 54.9 µM
same,Potency,[8],inactive
CCNS(=O)(=O)C(F)(F)C(F)(F)C(F)(F)C(F)(F)C(F)(F)C(F)(F)C(F)(F)C(F)(F)F,Potency,[12],inactive
same,Potency,[13],inactive
